Source: PubChem BioAssay AID1745853 (National Center for Advancing Translational Sciences (NCATS), 2022)
This is one part of the list. Shown are side measurements of this screen, not its main read-out; they come without a call.

What was measured:
Assay in all cases: Primary Screen for Target Class Profiling of Small Molecule Inhibitors of Methyltransferases
[1] = target: Glycine N-methyltransferase (Homo sapiens) (UniProt Q14749); settings: purified enzyme, MTase-Glo SAH luminescence; measured here: GNMT inhibition; at 40 µM; stronger effect = lower value
How it was run: (§1)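 Each enzyme was reacted with SAM and its substrate, with compounds tested once at 40 uM; SAH formed was read by MTase-Glo luminescence.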

[2] = target: Guanidinoacetate N-methyltransferase (Homo sapiens) (UniProt Q14353); settings: purified enzyme, MTase-Glo SAH luminescence; measured here: GAMT inhibition; at 40 µM; stronger effect = lower value
How it was run: as §1

[3] = target: Histamine N-methyltransferase (Homo sapiens) (UniProt P50135); settings: purified enzyme, MTase-Glo SAH luminescence; measured here: HNMT inhibition; at 40 µM; stronger effect = lower value
How it was run: as §1

[4] = target: Nicotinamide N-methyltransferase (Homo sapiens) (UniProt P40261); settings: purified enzyme, MTase-Glo SAH luminescence; measured here: NNMT inhibition; at 40 µM; stronger effect = lower value
How it was run: as §1

[5] = target: Phenylethanolamine N-methyltransferase (Homo sapiens) (UniProt P11086); settings: purified enzyme, MTase-Glo SAH luminescence; measured here: PNMT inhibition; at 40 µM; stronger effect = lower value
How it was run: as §1
% is scaled to controls: 0 for no effect and ±100 for the full control effect.

| Structure (SMILES) | activity change, negative = inhibition [1] | activity change, negative = inhibition [2] | activity change, negative = inhibition [3] | activity change, negative = inhibition [4] | activity change, negative = inhibition [5] |
| --- | --- | --- | --- | --- | --- |
| C#CCNC(=O)[C@@H]1CCCN1[C@@H](C(=O)NC)c1ccccc1 | -5.74% | -9.08% | -4.68% | -10.7% | -4.33% |
| COC(=O)c1cc2n(n1)CC(C)(C(=O)NC1CCCCC1)N(Cc1ccc(Cl)cc1)C2=O (stereo not drawn) | 0.286% | 5.43% | 6.26% | -1.96% | 0.857% |
| O=S(=O)(c1ccc2c(c1)CCC2)N1CCC(Cc2nc(-c3ccncc3)n[nH]2)C1 (stereo not drawn) | -5.22% | -2.28% | -2.45% | -8.24% | -4.35% |
| CN(C)C/C=C/C(=O)Nc1cc2c(Nc3ccc(F)c(Cl)c3)ncnc2cc1O[C@H]1CCOC1 |  | -63.1% |  | -70.6% | -76.5% |
| C/C=C(\C)C(=O)O[C@@H]1[C@@H](C)[C@]2(O)[C@@H]3C=C(C)C(=O)[C@H]3CC(CO)=C[C@H]2C2C(C)(C)[C@@]21OC(=O)C(C)CC (stereo partly drawn) | -8.8% | -12.7% | -1.04% | -22.6% | -16.5% |
| O=C(CCc1ccccc1)c1c(O)c([C@@H]2O[C@H](CO)[C@@H](O)[C@H](O)[C@H]2O)c(O)c([C@@H]2O[C@H](CO)[C@@H](O)[C@H](O)[C@H]2O)c1O | 0% | 9.08% | 4.6% | -4.18% | 5.85% |
| CC1=CC2/C=C(\C)CC[C@@H](O)[C@@H](O)[C@@H]3O[C@@H]3C(=O)[C@]23C(=O)N[C@@H](CC(C)C)[C@@H]3[C@@H]1C (stereo partly drawn) | -4.93% | 1.19% | 4.93% | -14.5% | -11.8% |
| COc1cccc(CN2C(=O)CSc3c(c4ccccc4n3C)C2C(=O)NCCCOC(C)C)c1 (stereo not drawn) | -2.16% | -6.95% | 2.32% | -11.3% | -4.2% |
| Cn1cc(CN2CCN(c3cnccn3)CC2)c(-c2ccc(C3CCCCC3)cc2)n1 | -8.56% | 0.597% | -0.43% | -28.8% | -5.05% |
| COc1ccc(OC)c(N2C(=O)c3cc4ccc(OC)cc4n3CC2(C)C(=O)NC2CCCCC2)c1 (stereo not drawn) | -3.28% | 0% | 1.53% | -4.79% | -3.23% |
| CCOC(=O)c1cc2n(n1)CC(C)(C(=O)NCCC(C)C)N(c1ccc(F)cc1C)C2=O (stereo not drawn) | -4.25% | 5.19% | -1.74% | 4.39% | -1.76% |
| COc1ccc(C2COc3cc(O)ccc3C2)c(O)c1OC (stereo not drawn) | 0% | 4.85% | 3.82% | -11.8% | 4.71% |
| CCOCCCNc1nc2c(S(=O)(=O)c3ccc(CC)cc3)nnn2c2ccccc12 | -7.22% | 4.67% | 0.177% | -4.57% | -7.41% |
| Cc1ccc(NC(=O)CSc2nnc3n(CCc4ccccc4)c(=O)c4ccccc4n23)c(C)c1 | 3.05% | 4.99% | 6.84% | -3.17% | -0.238% |
| Cc1cccc(-c2nnn3c2nc(N2CCCC2)c2ccccc23)c1 | -3.95% | 1.54% | -2.62% | 2.69% | -12.8% |
| CCC(C)NC(=O)c1ccc2c(=O)n(C)c3nn(Cc4cccc(OC)c4)c(=O)n3c2c1 (stereo not drawn) | 7.63% | 0.711% | 6.37% | 4.69% | 8.01% |
| COc1cccc(CN2C(=O)c3nc4ccccc4n3CC2(C)C(=O)NC2CCCC(C)C2C)c1 (stereo not drawn) | -5.72% | 5.48% | -1.7% | -17.2% | -1.29% |
| O=C(CCn1ccc2cc(S(=O)(=O)N3CCCCC3)ccc21)NCc1ccccc1 | 4.39% | 2.48% | 8.26% | 1.08% | 3.33% |
| COCCc1noc([C@@H]2CC(F)(F)CN2C(=O)c2ccoc2)n1 | -0.348% | 3.82% | 1% | 4.38% | 2.6% |
| COC(=O)c1ncn2c1C(=O)N(C1CC1)C(C)(C(=O)NCc1ccccc1)C2 (stereo not drawn) | 1.27% | 0% | 10.9% | 5.73% | 5.23% |
| CSCCC(NC(=O)c1ccccc1NC(=O)c1ccccc1)C(=O)O (stereo not drawn) | 0.676% | 6.52% | 2.44% | 11% | -2.56% |
| Cc1ccc(Cn2c(=O)c3ccccc3n3c(CCC(=O)NCCc4ccc(Cl)cc4)nnc23)cc1 | -6.72% | 0% | 0.692% | 0.451% | -7.87% |
| COc1ccc(-c2ccc3nnc(CNC(=O)CCc4ccccc4)n3n2)cc1 | -7.25% | -8.44% | -5.54% | -14.6% | 1.9% |
| O=S(=O)(c1ccccc1)c1nnn2c1nc(NC1CCN(Cc3ccccc3)CC1)c1ccccc12 | 6.54% | 5.55% | -3.23% | 4.96% | 4.53% |
| COCc1ncc(C)n1C1CCN(C(=O)Cc2cccc(F)c2)CC1 | 0.799% | 1.51% | 1.72% | 1.16% | -4.11% |
| CC1=C[C@@H](CNC(=O)CCCC(=O)O)[C@H](C(C)C)C[C@H]1Cc1nc2ccccc2n1C | -5% | -1.67% | -3.46% | -10% | -3.71% |
| COc1ccccc1CNC(=O)c1ccc2c(=O)n(-c3cccc(F)c3)c3nnc(C)n3c2c1 | 2.78% | 4.22% | -2.16% | 5.83% | 0.681% |
| Cc1nc(CC(=O)NCc2cccnc2N2CCOCC2)cs1 | 0.049% | 1.55% | 2.84% | 2.83% | 2.33% |
| COCC(=O)N[C@@H]1CN(Cc2ccc(C)s2)CC[C@@H]1c1n[nH]c(C)n1 | -4.32% | -3.67% | -0.019% | -6.91% | 8.2% |
